Data from PubChem BioAssay AID504845 (National Center for Advancing Translational Sciences (NCATS), 2011).
Values joined by “and” are separate entries in the source; they are usually repeats but may differ in a detail not shown here. Equal values may be shown once. Out of some 390,000 compounds screened, about 150 (0.038%) were called active. Inconclusive results (about 3%) are left out. The call rests on the fitted dose curve; in most records, active means well fitted inhibition curve with a large enough effect; inconclusive means small, poorly fitted or top-dose-only effect; inactive means no such curve, though single readings can be large or run the other way. Only a part is listed here, and it is no random draw. More than one record can exist for a structure, and the calls need not agree.
Further: nearly all actives have a fitted effect of over 75% in size.
On the % scale 0 is the no-effect control and ±100 the full control effect; potency means the concentration at half of the fitted maximal effect.

The compounds below were run against Regulator of G-protein signaling 4 (Homo sapiens) (UniProt P49798) (assay: Inhibitors of Regulator of G Protein Signaling (RGS) 4: qHTS). Settings: Transcreener GDP fluorescence polarization, RGS4-accelerated GTP hydrolysis; series mostly up to 114 µM; activity change, negative = inhibition: at the top concentration.
UniProt P49798, sequence (P49798 whole entry, looked up, the tested form may be a part): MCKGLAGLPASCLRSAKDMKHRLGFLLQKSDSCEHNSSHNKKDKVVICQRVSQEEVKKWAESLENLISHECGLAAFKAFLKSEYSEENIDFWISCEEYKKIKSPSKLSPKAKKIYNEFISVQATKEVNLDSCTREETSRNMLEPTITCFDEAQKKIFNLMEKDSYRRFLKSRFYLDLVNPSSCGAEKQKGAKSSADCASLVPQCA
Source text: G-protein-coupled receptors (GPCRs) are well-established targets for drug discovery and development. Members of the "regulator of G-protein signaling" (RGS)-protein superfamily have recently emerged as critical modulators of specific GPCR signaling pathways. […] Combining specific RGS domain inhibitors with existing GPCR agonists should potentiate cellular responses and could also increase the specificity of action of existing therapeutics. Small molecule modulators of RGS domain activity should also have clinical utility in inhibiting or potentiating the actions of endogenous GPCR agonists. In particular, the diversity of RGS proteins with highly localized and dynamically regulated distributions in the human brain makes this family of proteins attractive targets for pharmacotherapy of central nervous system (CNS) disorders such as Parkinson's disease, schizophrenia, and anxiety.
This assay was used to screen the NIH Molecular Libraries Small Molecule Repository (MLSMR) in order to identify a small molecule that inhibits RGS4.
NIH Chemical Genomics Center [NCGC]
NIH Molecular Libraries Probe Centers Network [MLPCN]
Assay Submitter (PI): David Siderovski, University of North Carolina Chapel Hill (School of Medicine)
Two microliters of 500nM (2x working concentration) is dispensed into black medium-binding solid-bottom Kalypsys plates. Then with the Kalypsys pintool 23nl of control and compounds are transferred; the control compound is […] CCG-4986 (working concentration). After a 10 minute incubation at room temperature 2ul of antibody is added with the Kalypsys dispenser; (-)RGS4/Transcreener GDP solution in columns 3 and 4 which consisted of 10nM (2x working concentration) Alexa633, 20uM GTP, and 20 ug/ml GDP antibody and (+)RGS4/Transcreener GDP solution in columns 1,2, and 5 to 48 which consists of 900nM RGS4 (2x working concentration), 10nM Alexa633, 20 ug/ml GDP antibody. The plate is centrifuged at 1000 RPM for 15 seconds to remove any possible bubbles and then incubated for 5 minutes at ambient room temperature. An initial fluorescent polarization read (620 nm/688 nm) is performed on the Envision before the plate is incubated for 90 minutes at 30 deg C at a relative humidity of 80%. The plate is once more centrifuged at 1000 RPM for 15 seconds and another Envision fluorescent polarization (620 nm/688 nm) read is carried out.
In the case of `Cc1ccc(/C=C2/C(=O)NC(=O)N(CCc3ccc(F)cc3)C2=O)s1`, the “activity change, negative = inhibition” value is reported as inactive: -48%. In the case of `CCCCCCC(C)(C)c1ccc([C@@H]2C[C@H](O)CC[C@H]2CCCO)c(O)c1`, the “activity change, negative = inhibition” value is reported as inactive: 14.6%. `C=CCN1CC[C@@]23c4c5ccc(O)c4O[C@H]2/C(=N\N=C2/CC[C@@]4(O)[C@H]6Cc7ccc(O)c8c7[C@@]4(CCN6CC=C)[C@@H]2O8)CC[C@]3(O)[C@@H]1C5` was tested, and the “activity change, negative = inhibition” value was inactive: -36.6% [at 56.9 µM]. For `NC(N)=Nc1ccc2[nH]c3c(c2c1)C[C@@]1(O)[C@H]2Cc4ccc(O)c5c4[C@@]1(CCN2CC1CC1)[C@H]3O5`, the Potency was active: 23.8 µM. In the case of `CCC1(C2=NCCN2)Cc2ccccc2O1` (stereo not given), the Potency is reported as “inactive”. For `C=C(C)[C@@H]1CC[C@]2(C(=O)O)CC[C@]3(C)C(CCC4[C@@]5(C)CC[C@H](O)C(C)(C)C5CC[C@]43C)C12` (stereo not given in full), the “activity change, negative = inhibition” value was inactive: -10.9%. For `CCNC(=O)C1OC(n2cnc3c(N)ncnc32)C(O)C1O` (stereo not given), the “activity change, negative = inhibition” value was inactive: -18.7%. With `C[N+]1(C)CCc2cc3c(cc2[C@H]1[C@@H]1OC(=O)c2c1ccc1c2OCO1)OCO3` the Potency was “inactive”. In the case of `O=c1[nH]oc2c1CCNC2`, the Potency is reported as “inactive”. In the case of `CC[C@@H](CO)NC(=O)[C@@H]1C=C2c3cccc4c3c(cn4C)C[C@H]2N(C)C1`, the Potency is reported as “inactive and active: 18.9 µM”. In the case of `CC(=O)N1CC[N+](C)(C)CC1`, the “activity change, negative = inhibition” value is reported as inactive: 58.5% [at 56.9 µM]. `CC1=C(C(=O)Nc2ccccc2)S(=O)(=O)CCO1` was tested, and the “activity change, negative = inhibition” value was inactive: 55.2%. For `c1ccc2c(c1)OCC(C1=NCCN1)O2` (stereo not given), the Potency was “inactive”. In the case of `c1ccc(C2CNCc3ccccc32)cc1` (stereo not given), the “activity change, negative = inhibition” value is reported as inactive: 70% [at 56.9 µM]. In the case of `CN1CCC2(CC1)C(C#N)=C(N)NC(S)=C2C#N`, the “activity change, negative = inhibition” value is reported as inactive: -50.5%. With `CN1CCC[C@H]1c1cccnc1` the Potency was “inactive”. For `C[C@]1(C(=O)O)CCC[C@]2(C)c3cc(O)ccc3CC[C@@H]12`, the Potency was active: 1.06 µM. For `CC(=O)OC1C([N+]2(C)CCCCC2)C[C@H]2C3CC[C@H]4C[C@H](OC(C)=O)C([N+]5(C)CCCCC5)CC4(C)[C@H]3CCC12C` (stereo not given in full), the “activity change, negative = inhibition” value was inactive: -8.35%. `C[C@]12CCC3C(CC[C@H]4C[C@H](O)CC[C@]34C)[C@@H]1CC[C@@H]2C(=O)CO` (stereo not given in full) was tested, and the “activity change, negative = inhibition” value was inactive: 310% [at 56.9 µM]. `CC1=NN(c2ccccc2)C(=O)C1/C=C1/C(=O)NC(=O)N(c2cc(C)cc(C)c2)C1=O` (stereo not given) was tested, and the “activity change, negative = inhibition” value was inactive: -47.2%. For `CC(C)C[C@H]1C(=O)N2CCC[C@H]2[C@]2(O)O[C@](NC(=O)C3C=C4c5cccc6[nH]c(Br)c(c56)C[C@H]4N(C)C3)(C(C)C)C(=O)N12` (stereo not given in full), the “activity change, negative = inhibition” value was inactive: -5.22%. With `CCCCC(C)C(OC(=O)CC(CC(=O)O)C(=O)O)C(CC(C)CC(O)CCCCC(O)CC(O)C(C)N)OC(=O)CC(CC(=O)O)C(=O)O` (stereo not given) the “activity change, negative = inhibition” value was inactive: -11.3%. With `CC(C)CC1C(=O)N2CCC[C@H]2[C@]2(O)O[C@](NC(=O)[C@@H]3C=C4c5cccc6[nH]c(Br)c(c56)C[C@H]4N(C)C3)(C(C)C)C(=O)N12` (stereo not given in full) the “activity change, negative = inhibition” value was inactive: 11.1%. For `CCN1C[C@@]2(COC)C3[C@@H](OC)C4[C@@H]1C3([C@@H]1C[C@]3(O)[C@H](OC(=O)c5ccccc5)[C@@H]1[C@]4(OC(C)=O)[C@@H](O)[C@@H]3OC)[C@H](OC)C[C@H]2O`, the “activity change, negative = inhibition” value was inactive: 5.7% [at 56.9 µM]. `CC(C)(O)C1O[C@H]2CC[C@@]3(C)[C@@](O)(CC[C@H]4Cc5c([nH]c6ccccc56)[C@@]43C)C2=CC1=O` (stereo not given in full) was tested, and the “activity change, negative = inhibition” value was inactive: 210% [at 56.9 µM]. With `CN1C[C@H](CNC(=O)OCc2ccccc2)C[C@@H]2c3cccc4c3c(cn4C)C[C@H]21` the “activity change, negative = inhibition” value was inactive: -3.14%. `CC(=O)[C@H]1CCC2C3CC[C@H]4C[C@@H](O)CC[C@]4(C)C3CC[C@@]21C` (stereo not given in full) was tested, and the “activity change, negative = inhibition” value was inactive: -22.3%. With `CN1CC[C@@]2(c3cccc(O)c3)Cc3nc4ccccc4cc3C[C@H]2C1` the “activity change, negative = inhibition” value was inactive: 0% [at 56.9 µM]. For `CC(C)[C@H]1C(=O)N2CCC[C@H]2[C@]2(O)O[C@](NC(=O)[C@@H]3C=C4c5cccc6[nH]cc(c56)C[C@H]4N(C)C3)(C(C)C)C(=O)N12`, the “activity change, negative = inhibition” value was inactive: -34.7%. `N#CC(C#N)=Cc1ccc(O)c(O)c1` was tested, and the “activity change, negative = inhibition” value was inactive: -41.1%. In the case of `CC(C)NCC(O)COc1cccc2[nH]ccc12` (stereo not given), the “activity change, negative = inhibition” value is reported as inactive: -11.1% [at 56.9 µM]. For `NC(=O)CI`, the Potency was active: 18.9 µM. For `CC(C)C[C@H](NC(=O)[C@H](Cc1ccccc1)NC(=O)CNC(=O)[C@H](CO)NC(=O)[C@@H](N)Cc1ccc(O)cc1)C(=O)N[C@H](C(=O)O)[C@H](C)O`, the “activity change, negative = inhibition” value was inactive: 490% [at 56.9 µM]. With `CC(C)C[C@H]1C(=O)N2CCCC2[C@]2(O)O[C@](NC(=O)[C@@H]3C=C4c5cccc6[nH]cc(c56)CC4N(C)C3)(C(C)C)C(=O)N12` (stereo not given in full) the “activity change, negative = inhibition” value was inactive: -38.7%. With `COc1ccc2[nH]c3c(c2c1)CCNC3` the “activity change, negative = inhibition” value was inactive: -18.3%. With `NCC(O)c1ccc(O)cc1` (stereo not given) the Potency was “inactive”. `CC(=O)C1CCC2C3CCC4CC(O)CCC4(C)C3CCC12C` (stereo not given) was tested, and the “activity change, negative = inhibition” value was inactive: 11.3%. In the case of `C[N+]1(C)C2CCC1CC(OC(=O)C(CO)c1ccccc1)C2` (stereo not given), the Potency is reported as “inactive”. `CC(=O)O[C@H]1C[C@@H]2CC[C@@H]3[C@H](CC[C@@]4(C)[C@H]3C[C@H]([N+]3(C)CCCCC3)[C@@H]4OC(C)=O)[C@@]2(C)C[C@@H]1[N+]1(C)CCCCC1` was tested, and the Potency was “inactive”. `CC12NC(Cc3ccccc31)c1ccccc12` (stereo not given) was tested, and the “activity change, negative = inhibition” value was inactive: 38.3% [at 56.9 µM]. For `CC(=O)[C@H]1[C@H](C#N)C[C@H]2[C@@H]3CC=C4C[C@@H](O)CC[C@]4(C)[C@H]3CC[C@@]21C`, the “activity change, negative = inhibition” value was inactive: 0.698%. In the case of `CN1CCc2cc(O)cc3c2C1Cc1ccc(O)c(O)c1-3` (stereo not given), the “activity change, negative = inhibition” value is reported as inactive: -140% [at 56.9 µM]. In the case of `CN1CCc2cc(O)cc3c2[C@H]1Cc1ccc(O)c(O)c1-3`, the “activity change, negative = inhibition” value is reported as inactive: -52.9%. With `Clc1cncc(N2CCNCC2)n1` the Potency was active: 4.23 µM. With `NCC(CC(=O)O)c1ccc(Cl)cc1` (stereo not given) the Potency was “inactive”.
